Over roughly 110,000 compounds, “z-score” has its median near -0.1; the highest 2% begin near 2. The list shows a part of the results. Calls of active or inactive are those of the source.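 The calls were made as follows: active = z-score in the third read window above 3 or below -3; inactive = the rest.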

The assay has as its target Metabotropic glutamate receptor 8 (Rattus norvegicus) (UniProt P70579). As to the kind of experiment: mGluR8 Gi/Go-coupled signaling modulation – cell-based, rat, thallium flux, HTS, primary screen (AID 488969). To be noted: HEK293 rat mGluR8, GIRK (G protein-gated inwardly rectifying potassium channel) thallium flux, FluoZin2; at 10 µM; stronger effect = higher value; submaximal glutamate (EC20) added with thallium.
Chain of UniProt P70579 (P70579 whole entry, looked up): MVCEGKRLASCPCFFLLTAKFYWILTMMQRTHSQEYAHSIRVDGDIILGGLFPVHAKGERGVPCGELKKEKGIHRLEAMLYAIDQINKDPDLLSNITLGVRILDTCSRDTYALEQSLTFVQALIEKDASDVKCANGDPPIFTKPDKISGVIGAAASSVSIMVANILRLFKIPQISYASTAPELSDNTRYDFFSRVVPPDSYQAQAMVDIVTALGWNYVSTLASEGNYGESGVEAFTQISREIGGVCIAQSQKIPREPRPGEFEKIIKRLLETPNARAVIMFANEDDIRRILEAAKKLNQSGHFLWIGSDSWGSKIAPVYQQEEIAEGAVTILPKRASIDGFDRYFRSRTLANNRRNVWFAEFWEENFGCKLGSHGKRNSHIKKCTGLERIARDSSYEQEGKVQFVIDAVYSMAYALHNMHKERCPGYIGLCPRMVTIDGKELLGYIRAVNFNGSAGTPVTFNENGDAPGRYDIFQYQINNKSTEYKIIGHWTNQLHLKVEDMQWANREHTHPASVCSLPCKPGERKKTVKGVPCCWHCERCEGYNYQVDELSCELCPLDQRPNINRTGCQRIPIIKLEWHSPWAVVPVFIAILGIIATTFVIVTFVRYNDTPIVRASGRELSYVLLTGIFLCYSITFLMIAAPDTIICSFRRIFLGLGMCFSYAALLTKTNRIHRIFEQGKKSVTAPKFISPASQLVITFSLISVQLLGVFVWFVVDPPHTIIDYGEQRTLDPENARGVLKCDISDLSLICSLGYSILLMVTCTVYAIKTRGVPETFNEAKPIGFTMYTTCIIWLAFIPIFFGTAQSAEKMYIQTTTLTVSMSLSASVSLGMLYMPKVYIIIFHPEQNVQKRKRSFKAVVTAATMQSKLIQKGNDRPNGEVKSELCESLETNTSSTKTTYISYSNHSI
The molecule `Cc1ccc(CN(C(=O)c2csnn2)C(C(=O)NC2CCCC2)c2ccc(C)o2)cc1` (stereo unspecified) came in with a z-score of -1.08.
The value for `Cc1ccc(CSC2=NCCN2C(=O)c2ccco2)cc1` was -0.483; that for `N#CC1=C(N)SC(N)=C(C#N)C1c1cccc(O)c1` was -0.387.
Take `O=C(Nc1c(C(=O)O)[nH]c2ccccc12)NC1CCCCC1`: the z-score came to 0.458.
Molecule `O=C(CN1C(=O)CSC1=O)Nc1ccc2c(c1)OCCO2` showed a z-score of 0.229.
In the case of `CC(C)OC(=O)c1ccc(OC(=O)c2cccnc2)cc1`, the z-score is -0.0201.
Molecule `O=C1/C(=C/c2cccs2)SC(=S)N1c1ccccc1` displayed a z-score of -0.00319.
The value for `O=C1CCC(=O)N1OCCCOc1ccc(Br)cc1Cl` was 0.401; that for `Cn1c(C(=O)N2CCN(Cc3ccc4c(c3)OCO4)CC2)cc2sccc21` was -0.409.
The value for `O=C(COC(=O)c1cc(S(=O)(=O)N2CCOCC2)c(Cl)cc1Cl)Nc1ncc(C(F)(F)F)cc1Cl` was -0.154; that for `Cc1cc(=O)n2nc(N3CCC(C(=O)N4CCN(Cc5ccccc5)CC4)CC3)sc2n1` was 0.376.
Take `Cc1ccc(CNC(=O)NC2CCCCC2)cc1`: the z-score worked out at 0.118.
With `O=C(O)c1cccc(N2C(=O)c3cccc(Oc4ccc(Cl)cc4)c3C2=O)c1`, the z-score was -1.41.
In turn, `CCCc1cc(-c2n[nH]c(C)c2-c2ccc(C(=O)OCC)o2)c(O)cc1O` came in with a z-score of 0.632.
Turning to `CCOc1ccccc1Oc1coc2cc(O)ccc2c1=O`, the z-score is -0.924.
On to `COc1cc2c(cc1/C=C1/NC(=O)N(c3ccccc3)C1=O)OCO2`, for which the z-score was -0.0749.
As for `Cc1c(C#N)c(N=CN(C)C)c(C(=O)c2ccccc2)n1-c1ccccc1`, the z-score amounted to 0.0655.
The molecule `CC(C)C(=O)Nc1nnc(Cc2ccccc2)s1` showed a z-score of -0.0622.
On to `Cc1ccc(/C=N\n2c(-c3ccccc3)n[nH]c2=S)s1`, for which the z-score stood at 0.798.
Regarding `CC(=O)c1cc2c(cc1NS(=O)(=O)c1ccc(C)cc1)OCO2`, the z-score was -0.152.
Next, `COc1ccc(NC(=O)c2cc3n(n2)C(C(F)(F)F)CC(c2ccc4c(c2)OCO4)N3)cc1OC` (stereo unspecified): -0.545.
In turn, `COc1ccc(-c2nnc3n(CCc4ccccc4)c(=O)c4ccccc4n23)c(OC)c1` showed a z-score of -0.0723.
With `COc1ccc(-n2cnc3cc(NCc4ccccn4)ccc32)cc1`, the z-score is -0.28.
Next, `CSc1ccc(/C=N/NC(=O)c2sccc2C)cc1`: -0.312; `CCOC(=O)c1ccc(NC(=O)CSc2nc(C)cc(=O)[nH]2)cc1`: -0.351.
For the molecule `S=C(NCCc1ccccc1)NC1CCCCCC1`, the z-score came to 0.365.
Molecule `COc1cc(CCC(=O)OCC(=O)Nc2cccc(S(=O)(=O)N(C)C)c2)cc(OC)c1OC` registered a z-score of -0.287.
As for `Cc1nc2sc(C(c3ccco3)N3CCC4(CC3)OCCO4)c(O)n2n1` (stereo unspecified), the z-score is -0.121.
For the molecule `CC1(C)NC(=O)N(CC(O)COc2ccc(-c3ccc(C#N)cc3)cc2)C1=O` (stereo unspecified), the z-score is active: 5.36.
For `CNS(=O)(=O)c1cccc(C(=O)Nc2cccc(Cl)c2)c1`, the z-score is -0.721.
Molecule `COc1ccc(C(=O)CSc2nnc(NC(=O)C3CC(=O)N(c4ccccc4)C3)s2)cc1` (stereo unspecified) yielded a z-score of -0.542.
Consider `CCOC(=O)c1cnc2c(OC)cccc2c1N1CCN(c2ccc(OC)cc2)CC1`, for which the z-score is 0.342.
As for `CCOCCCNC(=O)C(c1ccc(C)cc1)N(Cc1ccc2c(c1)OCO2)C(=O)CNC(C)=O` (stereo unspecified), the z-score is -0.231.
The molecule `O=S(=O)(/N=C(/Nc1ccc(F)cc1F)c1ccc(Cl)cc1)c1ccccc1` showed a z-score of -0.175.
In turn, `CCOC(=O)C1=C(c2ccccc2)OC(N)=C(C#N)C1C1CCCCC1` (stereo unspecified) yielded a z-score of -0.435.
With `CCOC(=O)CC1C(=O)NCCN1C(=O)c1cc2c(=O)n3ccccc3nc2s1` (stereo unspecified), the z-score is -0.533.
Next, `CC(C)Oc1cccc(C(=O)NC(=S)N2CCN(c3ccc(C(F)(F)F)cc3[N+](=O)[O-])CC2)c1`: active: 6.72.
With `CC(=O)Nc1ccc(N2C(C(C)=O)=NN(c3ccc(Cl)cc3)C2c2sccc2C)cc1` (stereo unspecified), the z-score is -0.0679.
`Cc1c(NC(=O)CSc2nnc(COc3ccccc3)n2-c2ccccc2)c(=O)n(-c2ccccc2)n1C` gave a z-score of -0.223.
Molecule `CC(C)(CNc1ccc([N+](=O)[O-])cc1Cl)CNS(C)(=O)=O` had a z-score of -0.224.
In turn, `CC1CCCC(C)N1CCNC(=O)Nc1ccc(Cl)cc1` (stereo unspecified) came in with a z-score of 1.09.
On to `COC(=O)C1(C)CCc2cc(OC)ccc2C1=O` (stereo unspecified), for which the z-score was -0.225.
In turn, `O=C(Cn1ccc2ccccc2c1=O)NCC1COc2ccccc2O1` (stereo unspecified) showed a z-score of 0.138.
With `O=C(N/N=C/c1cc(Br)ccc1O)C(=O)Nc1ccccc1OC(F)(F)C(F)F`, the z-score is -0.416.
In turn, `CCN(CC)CCn1c2ccc(Cl)cc2c2nc(C)sc21` registered a z-score of 0.617.
`O=C(NCc1ccco1)C1CCC(CNS(=O)(=O)c2cccc3cccnc23)CC1` (stereo unspecified): the z-score turned out to be 0.112.
The value for `CCOC(=O)c1cnn(-c2ccc(Cl)cc2)c1C1CCN(C(=O)OC(C)(C)C)CC1` was -0.27; that for `Cc1ccc(-c2nnc(SCC(=O)N/N=C/c3c(C)nn(-c4ccccc4)c3C)n2-c2ccccc2)cc1` was -2.13.
The value for `O=C(Cn1ncc2c1-c1ccccc1OC2)N1CCN(Cc2ccc3c(c2)OCO3)CC1` was 1.96; that for `O=C(CSCCO)Nc1ccccc1` was active: 3.04; that for `COc1ccc(CCN(Cc2ccc(C(C)C)cc2)S(=O)(=O)c2ccc(S(=O)(=O)N(C)C)cc2)cc1OC` was -0.134.
Turning to `COc1ccc2c(c1)c(CC(=O)Nc1ccc(C(C)=O)cc1)c(C)n2C(=O)c1ccc(Cl)cc1`, the z-score came to 0.181.
With `OC(c1ccccc1)c1nc2ccccc2s1` (stereo unspecified), the z-score is -0.283.
For `CCOC(=O)CSc1nnc(-c2ccc(S(=O)(=O)NCc3cccs3)cc2)o1`, the z-score was -0.23.
Turning to `c1ccc(N2CCN(c3nc(NCc4ccco4)c4ccccc4n3)CC2)cc1`, the z-score is -0.399.
Next, `Cc1cc(C)nc(NS(=O)(=O)c2ccc(NC(=O)CCC3COc4ccccc4O3)cc2)n1` (stereo unspecified): -0.4.
The value for `O=C(CCCCCN1C(=O)c2ccccc2C1=O)Oc1ccc2c3c(c(=O)oc2c1)CCC3` was -0.113; that for `Cc1ccc(NC(=O)C2CCN(S(C)(=O)=O)CC2)cc1C` was 0.424; that for `CCOc1cc(CNc2ccccc2)cc(Br)c1OCc1ccc(F)cc1` was -0.142.
With `CCCc1n[nH]c2c1/C(=N\O)CCC2`, the z-score was 0.258.
On to `O=C(Nc1ccc(-c2nc3ccccc3o2)c(O)c1)c1cc(-n2cnnc2)ccc1Cl`, for which the z-score is -0.0868.
Turning to `CCCCNC(=O)CCn1c(=O)c2ccccc2n(Cc2ccc(Cl)cc2)c1=O`, the z-score is -0.00943.
Next, `CCOC(=O)C1=C(C)NC(=O)NC1c1cc2c(cc1Br)OCO2` (stereo unspecified): -0.038; `O=C(OCc1ccc(Cl)cc1)c1ccccc1C(=O)c1ccccc1`: -0.635.
Next, `COc1ccc(Cn2c(SCc3cc(C)ccc3C)nc3cc(OC)c(OC)cc3c2=N)cc1`: -0.419.
In turn, `CCCn1c(N)c(C(=O)CSc2nc(C)cs2)c(=O)n(C)c1=O` registered a z-score of 0.109.

Source of the values: PubChem BioAssay AID488969 (Vanderbilt High Throughput Screening Facility, 2010).
